In article PMC4336329 (PLoS ONE, 2015):
Screen size: about 310,000 compounds; about 14,000 (4.5%) showed an effect of 50% or more. Effects have a minus sign here. The list shows a part of the results.

What follows are molecules tested against human ether-à-go-go-related gene (hERG) potassium channel (human, UniProt Q12809) (assay: primary screen, population patch clamp on CHO cells stably expressing hERG).
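Also: peak tail current of the secondary pulse compared with the same well before compound.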

Sequence of human ether-à-go-go-related gene (hERG) potassium channel (Q12809 whole entry, looked up): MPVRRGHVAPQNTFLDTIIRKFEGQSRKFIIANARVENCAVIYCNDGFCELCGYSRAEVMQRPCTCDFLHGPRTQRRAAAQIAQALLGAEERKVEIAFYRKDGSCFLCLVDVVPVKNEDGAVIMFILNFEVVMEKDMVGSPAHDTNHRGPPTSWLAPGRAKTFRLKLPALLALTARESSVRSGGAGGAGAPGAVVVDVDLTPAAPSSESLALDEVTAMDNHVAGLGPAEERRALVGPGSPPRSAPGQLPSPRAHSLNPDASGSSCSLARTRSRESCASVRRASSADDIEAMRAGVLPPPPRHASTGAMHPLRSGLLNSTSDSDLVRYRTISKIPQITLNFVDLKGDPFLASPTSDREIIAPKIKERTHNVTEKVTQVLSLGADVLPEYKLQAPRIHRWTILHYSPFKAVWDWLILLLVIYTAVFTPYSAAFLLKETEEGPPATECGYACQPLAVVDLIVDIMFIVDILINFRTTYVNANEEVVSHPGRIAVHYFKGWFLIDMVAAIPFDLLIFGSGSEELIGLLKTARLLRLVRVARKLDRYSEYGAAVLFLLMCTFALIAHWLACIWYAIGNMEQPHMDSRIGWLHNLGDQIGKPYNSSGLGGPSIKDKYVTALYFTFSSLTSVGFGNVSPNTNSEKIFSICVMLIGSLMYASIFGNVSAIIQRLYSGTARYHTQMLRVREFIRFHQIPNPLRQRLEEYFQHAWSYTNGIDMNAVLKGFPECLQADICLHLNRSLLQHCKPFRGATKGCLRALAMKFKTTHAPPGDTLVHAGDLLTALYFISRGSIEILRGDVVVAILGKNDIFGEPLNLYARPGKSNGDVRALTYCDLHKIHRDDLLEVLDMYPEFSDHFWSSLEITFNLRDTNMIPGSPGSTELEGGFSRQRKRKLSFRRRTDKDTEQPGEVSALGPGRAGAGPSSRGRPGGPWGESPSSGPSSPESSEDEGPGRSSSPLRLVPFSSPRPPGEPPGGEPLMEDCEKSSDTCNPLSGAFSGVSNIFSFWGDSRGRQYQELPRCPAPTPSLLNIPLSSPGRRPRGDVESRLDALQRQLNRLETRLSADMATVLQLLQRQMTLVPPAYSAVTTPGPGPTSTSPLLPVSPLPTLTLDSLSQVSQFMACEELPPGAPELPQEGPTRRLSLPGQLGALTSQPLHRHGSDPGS

Row | SMILES | hERG current change (%, negative = inhibition) at 10uM [%]
1 | CCc1ccccc1NC(=S)N(CCN(C)C)C(C)c1cccnc1 (stereo not drawn) | -7.25
2 | CCCC(=O)Nc1ccc(NC(=O)c2ccco2)cn1 | 5.91
3 | COC(=O)c1c(C)noc1-c1ccc(Cl)cc1 | -12.2
4 | CCN(CC)C(=O)CSc1nnc(-c2cccc(OC)c2)o1 | -9.81
5 | Cc1ccc(-c2nnc(N3CCN(C(=O)c4ccco4)CC3)c3ccccc23)cc1 | -75.2
6 | CCOC(=O)CN1C(=O)C2Cc3ccccc3CN2C1=S (stereo not drawn) | -16.3
7 | COc1ccc(OCC(=O)OCC(=O)c2ccc(OC)c(F)c2)cc1 | 12.8
8 | CCc1cc(=O)oc2cc(OCc3ccc(C(=O)O)o3)ccc12 | 22.8
9 | CN(C)CCn1c2c(c(SCC(=O)Nc3ccc4c(c3)OCCO4)nc1=O)CCC2 | -16.1
10 | Cc1cc(N(C)Cc2ccccc2)nc2cc(O)ccc12 | -56.4
11 | O=C(NC(=S)NC1CCSC1=O)c1ccc([N+](=O)[O-])cc1 (stereo not drawn) | -0.601
12 | O=C(Oc1ccccc1)c1cccc(N2C(=O)CCC2=O)c1 | -1.41
13 | COc1ccc(-c2oc3ccc(N4CCOCC4)cc3c2/C=C/c2ccc(OC)c(OC)c2)cc1 | 16.8
14 | Cn1c(=O)[nH]c(=O)c2c1nc(CN1CCOCC1)n2CCc1ccccc1 | -1.71
15 | CC1CCN(c2ccc3c(c2)S(=O)(=O)c2ccccc2C3=O)CC1 | 7.82
16 | C=CCn1c(SCCCC)nc([O-])cc1=O.[NH4+] | 5.65
17 | Cc1ccc(/C=N/n2c(-c3ccco3)n[nH]c2=S)cc1 | 9.2
18 | N#Cc1ccccc1S(=O)(=O)N1CCN(C(=O)CN2C(=O)NC3(CCCC3)C2=O)CC1 | 17.4
19 | COc1ccccc1N1CCN(C(=O)c2ccc(NS(=O)(=O)c3ccc(C)cc3)cc2)CC1 | -4.3
20 | Cc1oc2c(c1C(=O)c1ccccc1)C(=O)C(=O)c1ccccc1-2 | -1.85
21 | O/N=C1\CCCc2c1nc(-c1ccccc1F)n2O | 26.1
22 | CCCn1cnc2cc(NC(=O)c3cccs3)ccc21 | 10.3
23 | CC(C)(C)c1cc(/C=C2\NC(=O)NC2=O)cc(C(C)(C)C)c1O | -12.3

Row | SMILES | hERG current change (%, negative = inhibition) at 10uM [%]
24 | O=C1CC(N2CCN(c3ccc(Cl)cc3)CC2)C(=O)N1c1ccccc1 (stereo not drawn) | 1.34
25 | CN(C(=O)COC(=O)c1cccc(Cl)c1)C1CCS(=O)(=O)C1 (stereo not drawn) | 1.08
26 | O=C(Nc1ccccc1OC(F)(F)F)c1ccc([N+](=O)[O-])cc1 | -2.38
27 | Cc1ccc2c(c1)C1CN(C)CCC1N2C(=O)/C(C#N)=C/c1ccc2c(c1)OCO2 (stereo not drawn) | -21.2
28 | O=C(c1ccccc1Br)N1CCn2c1nc1ccccc12 | -14.5
29 | COc1ccc(N2CCCn3c2nc2c3c(=O)n(Cc3ccc(C)cc3)c(=O)n2C)c(OC)c1 | -10.4
30 | BrCCc1ccccc1 | 15.4
31 | c1ccc(Nc2nc(-c3cccnc3)cs2)nc1 | -1.81
32 | COC(=O)c1cc(=O)n(-c2ccccc2)c(=Nc2ccccc2)s1 | 1.66
33 | Cc1cc(C(=O)N2CCc3ccccc3C2)n[nH]1 | 5.11
34 | CCS(=O)(=O)N1CCC(C(=O)Oc2ccc(C(=O)OC)cc2)CC1 | 3.85
35 | Cc1ccc(NC(=O)COC(=O)COc2ccc(Cl)cc2C)c([N+](=O)[O-])c1 | -2.13
36 | Cc1cc(C)c(C)c(OCCOCCN2CCOCC2)c1 | -6.76
37 | CCC(=O)Nc1cc(C(=O)OCc2ccc(C(=O)Oc3ccccc3)cc2)ccc1C | 6.38
38 | CC(=O)c1cc(C#N)c(SCC(=O)OC(C)C)nc1C | -5.79
39 | CCOc1cc(CNCc2ccncc2)cc(Br)c1OCc1ccccc1F.Cl | -24.1
40 | Cc1ccc(C(=O)N2CCN(c3ccccc3)CC2)cc1S(=O)(=O)N1CCCC1 | -31.2
41 | O=C(/C(C=Nc1ccc(Br)cc1)=C(/O)c1ccco1)C(F)(F)F | -52.6
42 | COC(=O)c1ccc(C(=O)Nc2ccc3nc(-c4ccncc4)[nH]c3c2)cc1 | 18
43 | COc1ccccc1CC(=O)N1CCN(c2cccc(C(F)(F)F)c2)CC1 | -9.71
44 | CCn1c(=O)cc(SCC(=O)Nc2ccc3c(c2)OCCO3)c2ccccc21 | 14.8
45 | CCN1CCN(C(=O)CCc2nnc3ccc(N4CCN(c5cccc(OC)c5)CC4)nn23)CC1 | -5.55
46 | O=Cc1ccc(OCCN2CCCC2=O)cc1 | -11.8

Row | SMILES | hERG current change (%, negative = inhibition) at 10uM [%]
47 | Cc1ccc(-c2csc(NC(=S)NC(=O)c3ccco3)n2)cc1 | 3.36
48 | O=C(COC(=O)Cc1ccc(Cl)cc1)NC1CCCC1 | 16.1
49 | COc1ccc(CCNC(=O)CSc2nc3sc(C(=O)O)c(C)c3c(=O)[nH]2)cc1OC | -1.12
50 | O=P(COCCOCP(=O)(c1ccccc1)c1ccccc1)(c1ccccc1)c1ccccc1 | -8.03
51 | CN(Cc1c(F)cccc1Cl)C(=O)c1cccc(S(=O)(=O)NCc2ccccc2)c1 | -28
52 | CCOc1ccccc1N(C)C(=O)CCS(=O)(=O)c1ccc2c(c1)NC(=O)CO2 | 5.58
53 | N#CC1=C(S)N(c2ccccc2)C(c2cccs2)NC1=O (stereo not drawn) | 1.7
54 | Cc1ccccc1C(=O)NNC(=O)/C=C/c1ccccc1 | 16.4
55 | CC1CN(S(=O)(=O)c2ccc(C(=O)N3CCc4ccccc43)cc2)CC(C)O1 (stereo not drawn) | 15.9
56 | CC(NC(=O)C(=O)NCCC1=CCCCC1)c1ccccc1 (stereo not drawn) | 4.74
57 | COC(=O)c1cccc2c1NC(=O)C2=O | 8.85
58 | CCN(CC)C(=O)Cn1cc(C(=O)C(=O)NCc2cccnc2)c2ccccc21 | 15
59 | O=c1nc2n(Cc3ccccc3)c3ccccc3cc-2c(=O)[nH]1 | 2.67
60 | COc1cc(NC(=O)CSc2nc3[nH]ncc3c(=O)n2-c2ccc(Cl)cc2)cc(OC)c1 | 12.3
61 | Cc1ccc(-c2ccc(CO)o2)cc1N | 9.48
62 | CC1CCCN(C(=O)c2ccc3c(=O)n(C4CCCC4)c(=S)[nH]c3c2)C1 (stereo not drawn) | 7.81
63 | Cc1ccccc1-c1cc2nc(C)c(C)c(=O)n2[nH]1 | 10.2
64 | Cc1oc(-c2ccccc2Cl)nc1CS(=O)CC(=O)NCc1cccs1 (stereo not drawn) | -7.98
65 | Cn1cnc2c1c(=O)[nH]c(=O)n2C | 2.3
66 | ClC1(Cl)CC1CSc1nc2ccccc2[nH]1 (stereo not drawn) | -16.7
67 | CCCN(CC(=O)Nc1ccc(C(N)=O)cc1)CC(=O)Nc1cc(Cl)ccc1Cl | 12.5
68 | COc1ccccc1NC(=O)c1ccc(-c2ccccc2F)o1 | 12.7
69 | CC(=O)N(Cc1ccco1)C1(C(=O)NC2CCCCC2)CCCCC1 | -0.309

Row | SMILES | hERG current change (%, negative = inhibition) at 10uM [%]
70 | COc1ccc(OCCSc2nc(C)c(Cc3ccccc3)c(=O)[nH]2)cc1 | -5
71 | CCOC(=O)Nc1sc2c(c1C(=O)OCC)CCC2 | 11.6
72 | C/C(=N\NC(=O)c1ccc(CN2CCc3ccccc3C2)cc1)c1ccccc1O | -5.01
73 | Cc1ccc(NC(=O)C2CCCN(C3=NS(=O)(=O)c4ccccc43)C2)c(O)c1 (stereo not drawn) | -33.6
74 | CCc1ncc(C(O)c2cccc(OC)c2OC)n1C (stereo not drawn) | 7.01
75 | CCn1cc(C(=O)N2CC(C)CC(C)C2)c(=O)c2cc(S(=O)(=O)N(C)C)ccc21 (stereo not drawn) | -8.98
76 | COc1ccc(OC)c(-c2csc(NC(=O)Cc3ccc(F)cc3)n2)c1 | 11.5
77 | COc1cccc(NC(=O)c2cc(C(=O)Nc3cccc(OC)c3)n(C)n2)c1 | 10.7
78 | COc1ccc(Br)cc1CN(C)C(=O)c1cc(Cl)c2c(c1)OCCO2 | -0.338
79 | CCC(=O)Nc1ccnc(-c2cccnc2)n1 | -11.5
80 | Cc1nc2ncnn2c(C)c1CCC(=O)NC(C)c1ccc2c(c1)OCCO2 (stereo not drawn) | -11.8
81 | COc1ccccc1OCC(=O)Nc1cccc(-c2nnc(-c3ccco3)o2)c1 | -3.01
82 | O=c1cc(-c2ccc([N+](=O)[O-])cc2)nc2cc(-c3ccc(Cl)cc3)[nH]n12 | 7.56
83 | CN(Cc1ccccc1)C(=O)C1CCCN(Cc2cccc(Cl)c2)C1.O=C(O)C(=O)O (stereo not drawn) | -23.5
84 | COc1cc(NC(=O)C/C(C)=N/NC(=O)C(=O)NC2CCCCC2)c(OC)cc1Cl | -91.2
85 | CCc1c(C(=O)Nc2ccncc2)csc1C | 4.67
86 | CC(=O)Nc1nc(C)c(Oc2ccc(Cl)cc2Cl)c(=O)[nH]1 | 10.5
87 | COc1cc(CNCCN2CCOCC2)ccc1OCc1ccccc1Cl.Cl | -45.7
88 | Cc1onc(-c2c(Cl)cccc2Cl)c1C(=O)c1c[nH]c(C(=O)NC2CC2)c1 | 13.7
89 | CC(C)c1ccc(NC2CCCN(C(=O)CCN3CCOCC3)C2)cc1 (stereo not drawn) | 0.518
90 | C=CCCO[C@@H]1O[C@@H](C)[C@H](O)C[C@H]1O | 3.8
